Laboratory results from PubChem BioAssay (NCATS).
Several values for one entry are separate records, joined by “and”; a condition that tells them apart may be missing. Equal values may be shown once. This list was built around the results that the source calls inconclusive (neither active nor inactive); the mix of calls is not that of the screen. Potencies beside an inconclusive call are fits to weak or partial responses and may not hold up. Activity calls are given as the source filed them. Calls come from the whole dose curve; as a rule, active = well fitted activation curve with a large enough effect in the signal ratio, with a control signal flat (not every such curve was filed as active); inconclusive = small, poorly fitted or top-dose-only effect, or effect the other way, or a change in a side signal; inactive = flat fitted curve, though single readings scatter; the % refers to the signal ratio.

Assay: qHTS Assay for Identification of Small Molecule Agonists for Hypoxia Response Element Signaling Pathway (AID 914); for activation: top concentration of the series differs between compounds; % of control where 0% means no effect
Conditions: ME-180 (cervical carcinoma) HRE-bla reporter, beta-lactamase ratio, CoCl2, 17 h; activation: stronger effect = higher value
Procedure, shortened: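 Read-out: CCF4 FRET ratio of 460nm to 530nm emission (excitation 405nm) after 2.5 hours at room temperature, taken from HRE-bla ME-180 cells that had been exposed to compound and EC50 CoCl2 for 17 hours.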
Potency is the fitted concentration of half-maximal effect; tags give direction and shape of the fitted curve or compound fluorescence and quenching.

SMILES	Potency	activation
C/C=C\C1=C(CO)C(=O)C2O[C@]2(CC=C(C)C)C1=O (stereo partly drawn)	inconclusive: 2.51 µM [inhibitor, partial curve]	
CCN1C(=O)[C@H]2[C@@H]3[C@H](O)[C@H](O)CC(=O)[C@H]3CC[C@H]2C1=O		inactive: -3.64% and inactive: -8.67%
Cc1cc(C2(c3cc(C)c(O)c(C(=O)O)c3)OS(=O)(=O)c3ccccc32)cc(C(=O)O)c1O		inactive: -3.84%
CCc1cc(=O)oc2cc(C)c(CN3CCCC(C)C3)c(O)c12 (stereo not drawn)	inconclusive: 10 µM [inhibitor, partial curve]	
Clc1cccc(-c2nn3c(COc4ccccc4)nnc3s2)c1		inconclusive: 30.6%
CSc1cc(C)nc(N(C)C(C)=O)n1		inactive: 14.1%
COc1ccc(O[C@H]2C=C[C@@H](c3ccccc3)O[C@H]2COC(=O)CC/C(C)=N\OC[C@@H](O)COCc2ccco2)cc1		inconclusive: -8.71%
CCN1CCC(O)([C@H](C(=O)O)c2ccccc2)CC1		inactive: -12.7%
O=C(Oc1ccccc1)N1CCC2(CC1)CCN(c1ncccn1)CC2		inactive: 2.8%
O=C(CCC1CCCC1)N1CCC(N2CCN(c3ccccc3)CC2)CC1	inconclusive: 12.6 µM [inhibitor, single point]	
c1cncc(-c2nc(-n3ccnc3)c3ccccc3n2)c1	inconclusive: 3.98 µM [activator, single point]	
Cc1ccc(C)n1Cc1ccc(C(=O)O)cc1	inconclusive: 3.16 µM [activator, single point]	
COC(=O)C1=C(N)Oc2cc(C)[nH]c(=O)c2C1c1ccncc1 (stereo not drawn)		inactive: 2.44%
COC(=O)C(C(=O)OC)[C@@H]1CCCC(=O)C1		inactive: -2.41%
N=C(N)SCCSC(=N)N		inactive: -2.21%
C[C@H]1C[C@H]2[C@H]3CCC4=CC(=O)C=C[C@@]4(C)[C@]3(F)[C@H](O)C[C@]2(C)[C@@]1(O)C(=O)COP(=O)(O)O	inconclusive: 0.0501 µM [inhibitor, full curve]	
Cc1ccc(-n2[nH]c(C)c(C=Nc3cc(C)ccn3)c2=O)cc1	inconclusive: 10 µM [inhibitor, single point]	

SMILES	Potency	activation
COc1cccc([C@@H]2Oc3ccc(OC)cc3/C(=N/O[C@@H](C)c3cc(-c4c(C)cc(C)cc4C)no3)[C@@H]2O)c1		inconclusive: -19.4%
COc1cccc(Cn2c(=O)c(C)nc3cnc(OC)nc32)c1		inactive: 12.8%
CC(=O)O[C@H]1C2=C(C(=O)[C@H]3O[C@@H]31)[C@@H]1[C@@H]3[C@@H](C)OC=C4[C@H](O)[C@H]5O[C@@H]5C(=O)[C@]43C2O[C@H]1C	inconclusive: 3.16 µM [inhibitor, single point]	
Cc1nnc(SCCC#N)n(CCC#N)c1=O		inactive: 15.5%
CCNC(=O)N(C(=O)NCC)n1c(C)nnc1C		inconclusive: -45.3%
COc1ccc(C2CC(C(F)(F)F)n3ncc(C(=O)Nc4cccc(O)c4)c3N2)cc1OC (stereo not drawn)		inactive: -22.3%
CCC(NC(=O)Nc1nccs1)(C(F)(F)F)C(F)(F)F		inconclusive: -42.2%
Cc1nc2cnc(N(C)C)nc2n(C2CC2)c1=O		inactive: 9.86%
N#C/C(=C\N1CCNC1=S)C(=O)c1ccc2ccccc2c1		inconclusive: -15.8%
CN1C(=O)NC(NC(=O)c2ccco2)(C(F)(F)F)C1=O (stereo not drawn)		inconclusive: 12.2%
CC1CCc2cc(F)cc3c(O)c(C(=O)Nc4cnccn4)c(=O)n1c23 (stereo not drawn)	inconclusive: 0.0631 µM [inhibitor, full curve]	
O=c1c(-c2ccc(F)cc2)nc2cnc(N3CCOCC3)nc2n1Cc1cccs1	inconclusive: 5.01 µM [activator, single point]	
O=C(c1cnccn1)N1CCC2(CCCN(c3ccc(-c4ccccc4)cc3)C2)CC1		inconclusive: -40.9%
CN1CCN(Cc2c(O)ccc3c(-c4ccccc4)cc(=O)oc23)CC1	inconclusive: 6.31 µM [inhibitor, partial curve]	
CN1CCN(c2ncc3nc(CCc4ccccc4)c(=O)n(C4CC4)c3n2)CC1		inactive: -5.15%
Cc1ccc(-c2nnc(OCCN3CCOCC3)c3ccccc23)cc1	inconclusive: 1.58 µM [inhibitor, partial curve]	
